From PMC12136788
The other results are listed elsewhere or left out.

T1: UNK ZnF1-3 (human, UniProt Q9C0B0 31-174)
T1 sequence: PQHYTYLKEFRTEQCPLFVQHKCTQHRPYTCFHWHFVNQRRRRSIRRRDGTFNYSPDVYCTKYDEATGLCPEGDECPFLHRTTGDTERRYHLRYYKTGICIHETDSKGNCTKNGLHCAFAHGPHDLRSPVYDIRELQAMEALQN

B1: chr11:86538636:86538637:-_ENSMUSG00000047126_ENSMUST00000103186|perfect_dup|motif|central (ssRNA)
RNA: GGGAGUUCUACAGUCCGACGAUCUAACCAUUUCUCCAAAAGCUGUUUUCGCCCUUGCUGAAGUACAGGCCUACAAAGCUCGGAGGAUUCGUAUUUGUUGAGCUGUCCCUGGUCCAAAAGGAUACCAAAGUACUGAAGUAGAGGCAACAGAGGAUUGAGCAUCA
B2: chr7:141445308:141445309:+_ENSG00000106028_ENST00000265304|hu_hu|hu_hu_hu_mus_False|18_18 (ssRNA)
RNA: GGGAGUUCUACAGUCCGACGAUCUAUGAUUGUUGUUGCUUGCCGCCUCACAUUGUUUUUAUCCAUGUACUCGCCAUAGUCCACUUUCCCUUCCACAAAUAUACGAGCCCCCUUUUUCACAUAUUGAUAUGCCACAUCUCUGAGCAACAGAGGAUUGAGCAUCA
B3: 33663629_33663749_535_3pUTR_ENSG00000163539_ENST00000461133|human|control|control (ssRNA)
RNA: GGGAGUUCUACAGUCCGACGAUCACAGUAAUACAAGCUUCUCUAACCACCUGGGAUCUAAGAUCCUUAGCUGAAAGUUUAAGUGCUCCAUCCAACAAUCGUAAAUGUUGAAAAAAGCAAUCAUACUGUGCAGCUCCAGCAACACAACAGAGGAUUGAGCAUCA
B4: 235577844_235582818_518_CDS_ENSG00000116957_ENST00000366601|human|control|control (ssRNA)
RNA: GGGAGUUCUACAGUCCGACGAUCCAGAGAAACUUCUUGCAACUUGCUCAGCUGACUUUGCUGUUUCAUAAUAGAGUCAAAACCGAUAGUCUCCACAGGUUUAUUUCCAAUUGUAACAAUUUGCUCUUUUCUAUCUUCCUCUGGCAACAGAGGAUUGAGCAUCA
B5: chr4:83987663:83987664:+_ENSG00000138663_ENST00000264389|hu_hu|FALSE|FALSE (ssRNA)
RNA: GGGAGUUCUACAGUCCGACGAUCACGUCCUUCGGUUAUCAUUUGAGAUGCUAUCUUUUCCGCCUUAGCUGCAGGGAUCUCUAAAAGAGCUCCAAGUUCUUCGAAGGUAAUAUUAUUAUAUAAUUUGCUUGCAGACAACAAAUUCAACAGAGGAUUGAGCAUCA
B6: chr3:10015032:10015033:+_ENSMUSG00000027533_ENSMUST00000029046|mus_mus|mus_mus_mus_hu_True|28_68 (ssRNA)
RNA: GGGAGUUCUACAGUCCGACGAUCGUUUUUACCAUCACAAGUGAUGAUACAAUCUGGCUUGGCCAUUGCAGCCAUCUUUCGCAAAGCUAUUCCCACUCCUAGCUCCUUCAUGUACUCAUCAAAGCCUUUGCUGUCCACCAGGCGCAACAGAGGAUUGAGCAUCA
B7: chr13:100201205:100201206:-_ENSMUSG00000052727_ENSMUST00000064762|mus_mus|FALSE|FALSE (ssRNA)
RNA: GGGAGUUCUACAGUCCGACGAUCUUCAGUGAUAUGAAGCACACUGGCACCCAGAGUAGGGUGAUCUGGAGACUGCCGACUAAAGUCCAUAGCAAGAGAAUGCUCAGGGGAUUCCUGGCCGAACUCAAUAGACAUAGAAGACUGCAACAGAGGAUUGAGCAUCA
B8: chr6:30688276:30688277:+_ENSG00000196230_ENST00000327892|hu_hu|FALSE|FALSE (ssRNA)
RNA: GGGAGUUCUACAGUCCGACGAUCCCGAUCUGGUUGCCACACUGACCAGCCUGGAUGUGCACGAUUUCCCUCAUGGUUAAAAUUUAAUUUUUUUGCUCGCCUCAAGGUAUGUAUGGGGCAAGAAAAUAAGUAAUUUUUUUUCUCCAACAGAGGAUUGAGCAUCA
B9: 197169363_197169483_249_CDS_ENSG00000177888_ENST00000367405|human|control|control (ssRNA)
RNA: GGGAGUUCUACAGUCCGACGAUCAUCAUCAUUUAAAUAUUUUAGCAAAUUCUUAUUAUACUGCAAAGAACUUAAAAGCUUUCUCUGAUCUGGAGAGGGAGGAAGUUCCUGGUAACAGUGAAGAGCUUCAGGAGUUGGUCUUCCCAACAGAGGAUUGAGCAUCA
B10: 63425985_63433263_8830_CDS_ENSMUSG00000030451_ENSMUST00000076226|mouse|control|control (ssRNA)
RNA: GGGAGUUCUACAGUCCGACGAUCACCGUGGAUUUUGCAGUCGAUUCCUGAGCUCCUGCACUGUUUUAUUGCAAUCUCAAUGUACCUGUGAUACUCUGCACAGUCACUUAGCAGGGGUACAGUGGUGUCAGUUUGGUUGAUAUUCAACAGAGGAUUGAGCAUCA
B11: 130310313_130313774_279_3pUTR_ENSMUSG00000026356_ENSMUST00000027602|mouse|control|control (ssRNA)
RNA: GGGAGUUCUACAGUCCGACGAUCCGAACCAAAACUCUAUCUGGCUUUUCUUGUGAUUGUAUCAUAGAAGAUAUCCCAUAUCUCUCUUUAGCAUAAUCUUCCGCCGCGUCCACGAUCUCCCGCGGCUUCUCCUGACCCUUACGGCAACAGAGGAUUGAGCAUCA
B12: 33014521_33027954_1110_CDS_ENSMUSG00000038831_ENSMUST00000042615|mouse|control|control (ssRNA)
RNA: GGGAGUUCUACAGUCCGACGAUCGCGGAACCUGGCUGAGCUGGAGCCGGCAGAGGGGCCUGCAAGAUCUUCCUUGGACGAAACUAGUCUUGGAGAGCUGCUUCCUGGUUCGAUUCUGAGUGACAACUUGUAAUUAUCAUCUUCCAACAGAGGAUUGAGCAUCA
B13: chr9:53391639:53391640:-_ENSMUSG00000032047_ENSMUST00000034547|mus_hu|motif|central (ssRNA)
RNA: GGGAGUUCUACAGUCCGACGAUCCACUUUUUGGGGAUCAAUCUCCAACAUUUUAAUGUUUGCUAGUACAACCAGACGGAAGGCUUCAUUUACUUCCCACAUUGCAAUAUCUUCUUUUUUCAAUCCCACAUCUUUAAGAACCAUCAACAGAGGAUUGAGCAUCA
B14: chr10:33211235:33211236:-_ENSG00000150093_ENST00000302278|hu_mus|FALSE|FALSE (ssRNA)
RNA: GGGAGUUCUACAGUCCGACGAUCCAGAAUGACUUCUGAAGAAAGAGAGUUGUAGGCAUCGAUGAUUAGCUGGAUCACAUUACUAGAGUUUCCAGACAGUGUGCCCACUGCUGACUUAGGAAUCAAAUUCUUCAAUUCCUUGUACAACAGAGGAUUGAGCAUCA

Target: T1, UNK ZnF1-3
Test: nsRBNS (natural sequence RNA bind-n-seq); RBNS binding buffer (assumed for nsRBNS): 25 mM Tris pH 7.5, 150 mM KCl, 3 mM MgCl2, 0.01% Triton X-100, 500 ug/ml BSA, 20 U/ml SUPERase-In, 4 C; UNK is unkempt and MSI1 is Musashi-1; names of the RNAs are library labels; protein concentration not given here; high values mean tight binding

First: B1
Second: B2
The binding signal of the first is higher: 1.18 enrichment R for the first, 0.688 enrichment R for the second.

First: B3
Second: B4
The binding signal of the first is higher: 0.966 enrichment R for the first, 0.832 enrichment R for the second.

First: B5
Second: B6
The binding signal of the first is higher: 0.9 enrichment R for the first, 0.852 enrichment R for the second.

First: B7
Second: B8
The binding signal of the first is higher: 1.14 enrichment R for the first, 0.896 enrichment R for the second.

First: B9
Second: B10
The binding signal of the first is higher: 2.52 enrichment R for the first, 0.446 enrichment R for the second.

Compared with B11, B12 is higher in binding signal: 0.582 enrichment R for the first, 0.965 enrichment R for the second.

Going from B13 to B14, the binding signal falls from 1.03 enrichment R to 0.797 enrichment R.
